# “And” between values parts separate entries of the source, which are not always exact repeats. Equal values may be shown once. Hit rate of the full screen: of about 420,000 compounds, about 64,000 (15%) were called active. This list was built around the results that the source calls inconclusive (neither active nor inactive); the mix of calls is not that of the screen. The call rests on the fitted dose curve; in most records, active means well fitted inhibition curve with a large enough effect; inconclusive means small, poorly fitted or top-dose-only effect; inactive means flat fitted curve, though single readings scatter. A potency beside an inconclusive call is a rough fit, not a confirmed value.
# Assay: qHTS for Inhibitors of human tyrosyl-DNA phosphodiesterase 1 (TDP1): qHTS in cells in absence of CPT; further: nearly all actives have a fitted effect of over 55% in size
# Conditions: DT40 Tdp1-/- hTDP1 cells, no CPT, ATP luminescence, 48 h; activity change, negative = growth inhibition: at 46.2 µM (top of the series) unless noted
# In short: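 Chicken DT40 Tdp1-/- cells stably complemented with human TDP1 were seeded at 400 cells/well with DMSO in place of 20 nM camptothecin. After compound pinning, cells grew at least 48 hr at 37 °C; viability read by CellTiter-Glo luminescence.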
# On the % scale 0 is the no-effect control and ±100 the full control effect; potency means the concentration at half of the fitted maximal effect; tags describe the fitted curve by direction and shape.
Structure (SMILES),Potency,"activity change, negative = growth inhibition"
CCOc1ccccc1NC(=O)c1c(NC(=O)c2cccc(C)c2)sc2c1CCC2,inactive,–
COc1ccc(Cl)cc1NC(=O)N1CCN(c2ccccc2OC)CC1,"inconclusive: 23.1 µM [inhibitor, single point]",–
Cc1cc(S(=O)(=O)NCc2ccccc2)ccc1OCC(=O)NCc1cccnc1,inactive,–
O=C(Nc1ccccc1)Oc1cccc2cccnc12,active: 1.03 µM,–
Cc1ccc(-c2cc(C(F)(F)F)n3nc(C(=O)NCC45CC6CC(CC(C6)C4)C5)cc3n2)cc1,inactive,–
S=C(c1ccc(-c2ccccc2Cl)o1)N1CCOCC1,"inconclusive: 14.6 µM [inhibitor, single point]",–
CCOc1ccc(N2CC(NC(=O)c3ccc(S(=O)(=O)N4CCCCC4)cc3)CC2=O)cc1 (stereo not given),"inconclusive: 29.1 µM [inhibitor, single point]",–
O=C(Nc1cccs1)Nc1ccc(Br)cc1F,active: 20.6 µM,–
CN(C)S(=O)(=O)c1ccc(NC(=O)C2CC(=O)N(Cc3ccccc3Cl)C2)cc1 (stereo not given),inactive,–
Cc1cc(C)c([N+](=O)[O-])cc1-c1ccc(/C=N/NC(=O)c2nonc2N)o1,"inconclusive: 29.1 µM [inhibitor, single point]",–
Cc1ccc2cc3cc(C(=O)NCc4ccco4)oc3nc2c1,"inconclusive: 35.5 µM [inhibitor, single point]",–
O=S(=O)(c1ccc(Cl)cc1)N1CCn2c1nc1ccccc12,–,inconclusive: -30.1% [inhibitor]
CCN(CC)P(=O)(Nc1ccc(SC(F)F)cc1)c1ccc(N(C)C)cc1NC(=O)c1ccco1 (stereo not given),"inconclusive: 23.1 µM [inhibitor, single point]",–
O=C(NCCSc1c[nH]c2ccccc12)c1c(F)cccc1F,inactive,–
CCN(CC(=O)N1CCCC1)S(=O)(=O)c1ccc(F)cc1,inactive,–
Cc1ccc(NC(=O)CSc2nc3ccccc3nc2N2CCOCC2)cc1,active: 16.4 µM,–
CCOC(=O)C(=CNc1cc(C)nn1-c1ccccc1)C(=O)OCC,active: 16.4 µM,–
Cc1cccc(C)c1N1CCN(c2cc(Cl)nc(N)n2)CC1,"inconclusive: 23.1 µM [inhibitor, single point]",–
Cc1ccc(-c2cc(C(=O)N/N=C/C(Br)=C/c3ccccc3)n[nH]2)o1,active: 10.3 µM,–
CC(OC(=O)c1n[nH]c2ccccc12)C(=O)NC1CCCCC1C (stereo not given),"inconclusive: 32.6 µM [inhibitor, single point]",–
Cc1coc2cc3oc(=O)c(CCC(=O)NCCCN4CCOCC4)c(C)c3cc12,"inconclusive: 25.9 µM [inhibitor, single point]",–
COc1cc2nc(NCc3ccc(C)cc3)n3nc(-c4ccccc4)nc3c2cc1OC,"inconclusive: 4.11 µM [inhibitor, partial curve, poor fit]",–
CC(C)(C)c1ccc(S(=O)(=O)N2CCN(CC(=O)N3CC(=O)Nc4ccccc43)CC2)cc1,"inconclusive: 25.9 µM [inhibitor, single point]",–
COc1cc(OC)cc(C(=O)Nc2ccc([N+](=O)[O-])cn2)c1,"inconclusive: 29.1 µM [inhibitor, partial curve]",–

Structure (SMILES),Potency,"activity change, negative = growth inhibition"
O=C(Nc1cccc(C(=O)N2CCN(c3cccc(Cl)c3)CC2)c1)c1ccccc1,active: 25.9 µM,–
CCOC(=O)c1cc(-c2ccc(F)cc2)n(CC(=O)NC2CCCCCC2)c1C,active: 14.6 µM,–
Cc1nonc1OCCNCc1c(C(=O)N(C)C)nc2ccc(Cl)cn12,inactive,–
COc1cc(CNc2ccc3[nH]c(=O)[nH]c3c2)ccc1OCc1ccc(Cl)cc1,"inconclusive: 25.9 µM [inhibitor, single point]",–
Cc1nc2sccn2c(=O)c1S(=O)(=O)Nc1cc(Cl)ccc1O,"inconclusive: 32.6 µM [inhibitor, single point]",–
CC1Cc2ccccc2N1c1ncnc2c1nnn2Cc1ccccc1Cl (stereo not given),"inconclusive: 23.1 µM [inhibitor, single point]",–
CCOC(=O)c1sc(C)c2c1NC(c1ccc(Cl)cc1)NC2=O (stereo not given),"inconclusive: 20.6 µM [inhibitor, single point]",–
COC(C(=O)C(O)C(C)O)C1Cc2cc3cc(OC4CC(OC5CC(O)C(O)C(C)O5)C(O)C(C)O4)c(C)c(O)c3c(O)c2C(=O)C1OC1CC(OC2CC(OC3CC(O)C(OC)C(C)O3)C(O)C(C)O2)C(O)C(C)O1 (stereo not given),active: 0.146 µM,–
O=C(CSc1nc2nn(-c3ccccc3)c(=O)c-2c2n1CCCCC2)Nc1ccc(F)c(F)c1,"inconclusive: 20.6 µM [inhibitor, single point]",–
Cc1cc(C)c2[nH]c(=O)c(C(c3nnnn3C(C)(C)C)N(Cc3ccco3)CC3CCCO3)cc2c1 (stereo not given),"inconclusive: 11.2 µM [inhibitor, partial curve]",–
CCOCCCNCc1ccc(OC)cc1,inactive,–
COC(=O)N=Nc1c(O)n(Cc2ccccc2)c2ccccc12,"inconclusive: 18.4 µM [inhibitor, partial curve]",–
CCC(=O)N1N=C(c2ccc(NS(=O)(=O)c3ccc(C)cc3)cc2)CC1c1ccco1 (stereo not given),active: 13 µM,–
CN(C)CC/C=C1/c2ccccc2CSc2ccccc21,"inconclusive: 9.03 µM [inhibitor, single point]",–
Clc1ccc2nc(-c3ccncc3)cc(-c3ccccc3)c2c1,inactive,–
CCCCN1CCc2nc(Nc3ccc(OC)cc3OC)ncc2C1,"inconclusive: 14.6 µM [inhibitor, single point]",–
COCCn1c(=S)[nH]c2cc(C(=O)NCCc3ccc(OC)c(OC)c3)ccc2c1=O,inactive,–
COc1ccc2c(c1)CCc1cnc(-n3ncc(C(=O)NCC(C)(C)CN(C)C)c3C)nc1-2,"inconclusive: 20.6 µM [inhibitor, single point]",–
N[C@H](C(=O)O)[C@H](OCc1ccccc1)C(=O)O,inactive,–
O=C(Cc1ccccc1)Nc1cc(Cl)ccc1Sc1ccccc1,–,inconclusive: -33.7% [inhibitor]
COc1cccc(CSc2nc3ccccc3cc2C=O)c1,active: 1.03 µM,–
C/C(=C\c1ccccc1)C(=O)Nc1ccc(S(=O)(=O)Nc2ncccn2)cc1,inactive,–
COc1ccc(SCCN2CC[C@@H](NC(=O)OCc3ccccc3)CCC2=O)cc1,"inconclusive: 15.8 µM [inhibitor, single point] and inconclusive: 16.4 µM [inhibitor, single point]",–
COC1=C(N)C(=O)c2nc(C)ccc2C1=O,active: 7.31 µM,–

Structure (SMILES),Potency,"activity change, negative = growth inhibition"
CC1CCCC(C)N1C(=O)COC(=O)/C=C/c1ccc(Br)o1 (stereo not given),inactive,–
Cc1cccc(OCCCC(=O)Nc2nccs2)c1,"inconclusive: 29.1 µM [inhibitor, single point]",–
S=c1[nH]nc(-c2ccccc2)n1/N=C/c1cccc(Br)c1,inactive,–
COc1ccc(C(=O)C(OC(=O)c2ccc(C)c(NC(C)=O)c2)c2ccccc2)cc1 (stereo not given),"inconclusive: 29.1 µM [inhibitor, partial curve, poor fit]",–
CCN(CC)C(=O)c1cccc(NC(=O)c2ccccc2OCc2c(C)noc2C)c1,"inconclusive: 25.9 µM [inhibitor, single point]",–
CSCCC1NC(=O)N(CC(=O)Nc2cccc3ccccc23)C1=O (stereo not given),inactive,–
Nc1ccc(Nc2nc3ccccc3[nH]2)cc1,inactive,–
COC(=O)c1cn(C(=O)c2cc(OC)cc(OC)c2)c2ccccc12,"inconclusive: 20.6 µM [inhibitor, partial curve]",–
NC(CO)c1csc(Nc2ccc(C(F)(F)F)cn2)n1 (stereo not given),"inconclusive: 18.4 µM [inhibitor, single point]",–
Cc1cccc(NS(=O)(=O)c2ccc3[nH]c4c(c3c2)CCCCCC4)c1,"inconclusive: 16.4 µM [inhibitor, single point]",–
CCOc1cccc2c1N[C@@H](c1ccc(C(=O)O)cc1)[C@H]1CC=C[C@@H]21,"inconclusive: 6.51 µM [inhibitor, single point]",–
Cc1ccc(-n2nc(C)c3c(C)c(CCC(=O)NCc4ccccc4Cl)c(C)nc32)cc1C,"inconclusive: 29.1 µM [inhibitor, single point]",–
Cc1ccc(NCc2nnc(SCCN3CCCCC3)n2CC2CCCO2)cc1Cl (stereo not given),"inconclusive: 29.1 µM [inhibitor, single point]",–
Cc1cc(=O)[nH]c(N/N=C/c2c(C)oc3ccccc23)n1,"inconclusive: 20.6 µM [inhibitor, single point]",–
COc1cc2c(cc1NC(=O)c1cccc(Br)c1)CCCC2,active: 16.4 µM,–
CCOC(=O)C1(C)CCCN(C(=O)c2ccc3ccccc3c2)C1 (stereo not given),"inconclusive: 29.1 µM [inhibitor, single point]",–
CCOC(=O)c1sc2nc(C)nc(NCc3ccc(F)cc3)c2c1C,active: 25.9 µM,–
Cc1ccc(S(=O)(=O)N2C[C@H]3C(=O)C[C@@H](c4ccc(Cl)cc4)N(S(=O)(=O)c4ccccc4C)[C@H]3C[C@H]2c2ccc(Cl)cc2)cc1,"inconclusive: 20.6 µM [inhibitor, partial curve]",–
Cc1sc2ncnc(Nc3ccc(N4CCOCC4)cc3)c2c1-c1ccccc1,"inconclusive: 20.6 µM [inhibitor, single point]",–
COc1ccc(N2CCN(Cc3csc(C)c3-c3ccc(C)cc3)CC2)cc1,"inconclusive: 18.4 µM [inhibitor, single point]",–
COc1ccc(NC(=O)C(Cc2ccccc2)NS(=O)(=O)c2ccc3c(c2)CCC(=O)N3)c(OC)c1 (stereo not given),–,inconclusive: -32.5% [inhibitor]
COCC(COS(N)(=O)=O)Cc1ccccc1 (stereo not given),inactive,–
